PMC4336329 (PLoS ONE, 2015)
Among all 310,000 compounds or so, about 14,000 (4.5%) showed an effect of 50% or more. The effect is printed as a negative number. The list shows a part of the results.

target: human ether-à-go-go-related gene (hERG) potassium channel (human, UniProt Q12809); experiment: primary screen, population patch clamp on CHO cells stably expressing hERG
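Note: peak tail current of the secondary pulse compared with the same well before compound.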

Chain of human ether-à-go-go-related gene (hERG) potassium channel (Q12809 whole entry, looked up): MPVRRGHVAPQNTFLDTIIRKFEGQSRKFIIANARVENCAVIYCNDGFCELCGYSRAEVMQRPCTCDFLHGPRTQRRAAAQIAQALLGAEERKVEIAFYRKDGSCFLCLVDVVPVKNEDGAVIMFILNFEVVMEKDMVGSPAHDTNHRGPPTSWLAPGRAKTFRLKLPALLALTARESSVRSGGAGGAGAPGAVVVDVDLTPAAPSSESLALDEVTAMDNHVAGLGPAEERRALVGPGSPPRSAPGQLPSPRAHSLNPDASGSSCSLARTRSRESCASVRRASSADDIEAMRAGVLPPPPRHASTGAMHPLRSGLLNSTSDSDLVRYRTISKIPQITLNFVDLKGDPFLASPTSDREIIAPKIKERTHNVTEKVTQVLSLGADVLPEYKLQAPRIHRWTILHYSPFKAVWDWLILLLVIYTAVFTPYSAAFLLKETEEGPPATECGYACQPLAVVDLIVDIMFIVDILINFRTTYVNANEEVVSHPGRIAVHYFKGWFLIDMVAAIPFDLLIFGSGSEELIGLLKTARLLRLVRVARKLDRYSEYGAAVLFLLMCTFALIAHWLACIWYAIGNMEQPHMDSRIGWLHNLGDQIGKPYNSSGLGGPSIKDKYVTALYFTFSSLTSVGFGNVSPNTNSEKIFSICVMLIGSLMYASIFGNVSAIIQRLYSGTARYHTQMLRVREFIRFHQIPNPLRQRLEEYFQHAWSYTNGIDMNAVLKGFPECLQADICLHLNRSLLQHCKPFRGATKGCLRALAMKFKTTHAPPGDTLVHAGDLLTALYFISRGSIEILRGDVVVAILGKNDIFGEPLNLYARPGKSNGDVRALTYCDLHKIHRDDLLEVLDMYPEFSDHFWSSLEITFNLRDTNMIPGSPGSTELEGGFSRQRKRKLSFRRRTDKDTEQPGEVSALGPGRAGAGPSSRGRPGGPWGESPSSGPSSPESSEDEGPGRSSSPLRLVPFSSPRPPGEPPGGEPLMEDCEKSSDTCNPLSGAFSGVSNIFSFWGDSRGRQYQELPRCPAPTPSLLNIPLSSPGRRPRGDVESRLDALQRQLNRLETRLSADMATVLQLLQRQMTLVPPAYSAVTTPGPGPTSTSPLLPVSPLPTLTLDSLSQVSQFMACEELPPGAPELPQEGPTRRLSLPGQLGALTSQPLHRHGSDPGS

SMILES	hERG current change (%, negative = inhibition) at 10uM
COc1ccccc1OCCCCOc1ccccc1F	4.65%
COc1ccc(OC)c(C(=O)NC2CCSc3ccccc32)c1 (stereo not shown)	-0.0849%
CCOc1cccc(/C=N/N2C(=O)CSC2=S)c1O	24.2%
Cc1ccc(C)c(N(C)C(=O)c2cc3c(=O)[nH]c4ccc(C)cc4c3s2)c1	-2.75%
Cc1csc(NC(=O)c2oc3ccccc3c2C)n1	-9.95%
O=C(CSc1n[nH]c(-c2ccccc2)n1)N1CCOCC1	13.3%
CCc1nc2ccccc2c(=O)n1-c1ccc2ccccc2c1	-16%
Cn1c(C(=O)NCc2ccccc2)cc2oc3ccccc3c21	8.77%
COc1ccc(N2CCN(C(=O)CCCN3C(=O)c4cccc5cccc(c45)C3=O)CC2)cc1	8.04%
COc1ccc(NC(=O)CSc2nc(NS(=O)(=O)c3ccc(C)cc3)cc(=O)[nH]2)cc1	1.41%
CC(C)N1CCC(N2CCN(Cc3ccc(-c4ccccc4Cl)o3)CC2CCO)CC1 (stereo not shown)	-66.6%
Cc1cc(C)n(C(=O)Cn2nc([N+](=O)[O-])c(Br)c2C)n1	2.9%
COc1ccc(NC(=O)CSc2nnc(-c3ccccc3F)n2C2CC2)cc1S(N)(=O)=O	19.7%
O=C(NCC1CCCO1)c1cccc(S(=O)(=O)NCc2ccccc2)c1 (stereo not shown)	6.02%
Cc1cc(C)cc(NC(=O)Nc2ccc3c(c2)CCC3)c1	19.7%
CC(=O)Nc1ccc(C(=O)OCC(=O)NC2CCCCCCC2)cc1	15.2%
Cc1cccn2c(=O)c(C(=O)NC3CCCCC3)c(O)nc12	31.3%
OCCC1CN(Cc2ccc(Oc3ncccn3)cc2)CCN1C1CCCCC1 (stereo not shown)	-7.34%
Cc1ccccc1OCC1Cn2c(nc3c2c(=O)[nH]c(=O)n3C)O1 (stereo not shown)	-8.46%
NC(=O)CC1Nc2cccc3cccc(c23)NC1=O (stereo not shown)	8.93%
Cc1nn(C)c(C(=O)Nc2ccn(C34CC5CC(CC(C5)C3)C4)n2)c1[N+](=O)[O-]	-10.7%
CC(C(=O)OCC(=O)c1ccccc1)N1C(=O)c2ccccc2C1=O (stereo not shown)	-2.02%
O=C(CN1CCN(C(=O)COc2cccc(F)c2)CC1)Nc1ccc(Cl)c(C(F)(F)F)c1	-60.6%

SMILES	hERG current change (%, negative = inhibition) at 10uM
COc1ccc(NC(=O)c2nc[nH]c2C(=O)NCC(=O)OC(C)(C)C)cc1	-18.6%
O=C1C=CC(=O)N1c1ccc(OC(F)F)cc1	-2.06%
O=C(CN1CCN(c2ccc(O)cc2)CC1)Nc1cc([N+](=O)[O-])ccc1Cl	-3.23%
Cc1ccc(S(=O)(=O)NCC(=O)OCc2cc(=O)oc3c(C)c(C)ccc23)cc1C	-16.7%
CCN(CC)C(=O)Oc1ccc(Cl)c2cccnc12	-5.04%
Cc1ccc(C(=O)CNc2ccc(Br)cc2)cc1	2.81%
COc1cccc(-n2cc(CNCc3c(C(=O)N(C)C)nc4ccc(Cl)cn34)cn2)c1	-55.9%
O=C1c2ccc(-c3ccc(F)cc3OCc3ccccc3)cc2S(=O)(=O)c2cccc(C(=O)N3CCCC3)c21	13.1%
COC(=O)Cn1ncn2c(cc3oc(C)cc32)c1=O	13.1%
CCn1c(SCc2nc3ccccc3c(=O)[nH]2)nc2ccccc21	-12.4%
COc1ccc(C(=O)Nc2ccccc2Cc2ccccc2)c(OC)c1	-16.1%
Cc1ccccc1OCCn1cc(C(=O)O)c2ccccc21	15.3%
Cc1cc(C#N)c(C)n1-c1cc(S(=O)(=O)N2CCOCC2)ccc1N1CCCC1	-14.3%
CC(=O)Nc1ccc(/C=N/NC(=O)CNS(=O)(=O)c2ccccc2)cc1	5.91%
COc1ccc(Nc2oc(-c3ccc(F)cc3)nc2C#N)cc1	1.73%
O=C(/C=C/NNC(=O)c1ccccc1O)c1ccccc1	-23.5%
COCCSc1ccccc1C(=O)NCc1ccc(S(N)(=O)=O)cc1	-40.9%
CCc1cc(=O)oc2cc(C)cc(OCc3nn[nH]n3)c12	-5.99%
C=Cc1ccc(C(=O)NC2CCCN(Cc3ccccc3F)C2)cc1 (stereo not shown)	-28.8%
CCc1cc2c(=O)n(Cc3ccco3)c(SCc3c(C)noc3C)nc2s1	-5.47%
O=C(N/C(=C\c1ccc(Cl)cc1)C(=O)N1CCOCC1)c1ccco1	-31.4%
O=C(CCN1C(=O)COc2ccccc21)NCCCN1CCN(c2ccccc2F)CC1	-42.7%
CC(=O)Nc1ccc2ccc3cccc4ccc1c2c34	-2.51%
